In the CheMixHub viscosity set:

For `C=CC#N`, which viscosity (308.15 K, 101.33 kPa) is on record?
The viscosity was 0.309 ± 0.005 mPa·s, 0.309 ± 0.01 mPa·s [study A] and 0.312 ± 0.005 mPa·s, 0.315 ± 0.005 mPa·s [study B].

With `CN(C)c1ccccc1` as the molecule, how does the viscosity (293.15 K, 101 kPa) read?
Its viscosity is 1.373 ± 0.029 mPa·s [study A] and 1.405 ± 0.024 mPa·s [study B] and 1.385 ± 0.014 mPa·s [study C] and 1.387 ± 0.014 mPa·s [study D].

What about the viscosity (298.15 K, 101 kPa) of the same molecule?
The viscosity was 1.289 ± 0.027 mPa·s [study A] and 1.302 ± 0.034 mPa·s [study B] and 1.288 ± 0.021 mPa·s [study C] and 1.357 ± 0.023 mPa·s [study D] and 1.288 ± 0.014 mPa·s [study E].

And the viscosity (308.15 K, 101 kPa)?
The viscosity was 1.09 ± 0.02 mPa·s [study A] and 1.111 ± 0.041 mPa·s [study B] and 1.074 ± 0.023 mPa·s [study C] and 1.011 ± 0.1 mPa·s [study D] and 1.078 ± 0.018 mPa·s [study E] and 1.111 ± 0.016 mPa·s [study F].

And the viscosity (313.15 K, 101 kPa)?
Its viscosity is 1.01 ± 0.02 mPa·s [study A] and 0.988 ± 0.021 mPa·s [study B] and 1.032 ± 0.018 mPa·s [study C] and 0.985 ± 0.016 mPa·s [study D] and 1.024 ± 0.01 mPa·s [study E].

± gives the uncertainty stated by the source. A number of entries come with more than one value. They are shown here; other results are not. The source may hold further records. Values that stand side by side are repeats across runs, samples, wells, individuals or studies. What stands in brackets tells the records apart. Letters count within one entry.
